# Assay results from PubChem BioAssay AID488969 (Vanderbilt High Throughput Screening Facility, 2010).
# The full ranking holds about 110,000 compounds; the median of “z-score” is about -0.1, and the highest 2% start at about 2. Some of the results follow.
# Target: Metabotropic glutamate receptor 8 (Rattus norvegicus) (UniProt P70579)
# Experiment: rat mGluR8 modulators via GIRK flux, primary screen, cell-based, thallium flux, HTS (AID 488969)
# Conditions: HEK293 rat mGluR8, GIRK (G protein-gated inwardly rectifying potassium channel) thallium flux, FluoZin2; at 10 µM; stronger effect = higher value; submaximal glutamate (EC20) added with thallium
# Sequence of UniProt P70579 (P70579 whole entry, looked up): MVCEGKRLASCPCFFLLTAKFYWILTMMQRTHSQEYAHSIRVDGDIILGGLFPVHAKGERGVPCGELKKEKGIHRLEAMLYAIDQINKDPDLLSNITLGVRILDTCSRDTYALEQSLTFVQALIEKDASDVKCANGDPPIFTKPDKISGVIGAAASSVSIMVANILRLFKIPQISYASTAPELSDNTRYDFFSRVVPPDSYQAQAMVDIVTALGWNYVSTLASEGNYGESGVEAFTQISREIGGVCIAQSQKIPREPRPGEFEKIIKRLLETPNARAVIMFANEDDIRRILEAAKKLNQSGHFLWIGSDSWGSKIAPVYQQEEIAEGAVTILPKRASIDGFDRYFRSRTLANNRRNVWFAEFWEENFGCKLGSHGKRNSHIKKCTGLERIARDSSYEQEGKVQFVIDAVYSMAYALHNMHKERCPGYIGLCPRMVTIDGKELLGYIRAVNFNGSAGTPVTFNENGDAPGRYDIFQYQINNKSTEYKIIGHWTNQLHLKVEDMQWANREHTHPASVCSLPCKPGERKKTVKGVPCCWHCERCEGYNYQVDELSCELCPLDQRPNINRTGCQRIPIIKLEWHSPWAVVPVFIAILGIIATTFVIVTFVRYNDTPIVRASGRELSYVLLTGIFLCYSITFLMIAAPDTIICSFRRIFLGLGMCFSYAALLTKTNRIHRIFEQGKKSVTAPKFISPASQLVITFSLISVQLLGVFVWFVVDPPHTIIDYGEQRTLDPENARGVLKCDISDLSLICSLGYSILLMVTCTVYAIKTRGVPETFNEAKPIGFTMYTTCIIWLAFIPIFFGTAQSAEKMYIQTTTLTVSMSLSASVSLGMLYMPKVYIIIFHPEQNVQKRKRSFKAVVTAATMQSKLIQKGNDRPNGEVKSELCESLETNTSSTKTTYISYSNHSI
row,SMILES,z-score
1,O=C(O)CCn1c(-c2ccccc2)cc2c1CCCC2=O,0.0696
2,O=[N+]([O-])c1ccc(N2CCN(S(=O)(=O)c3ccccc3)CC2)cc1NCc1cccnc1,-0.159
3,Cc1nc(NC(=O)CC(C)C)sc1-c1csc(Nc2ccc(Cl)cc2Cl)n1,0.0283
4,COc1ccc(/C=C2\N=C(C)N(c3ccc4ccccc4c3)C2=O)cc1OC,-0.712
5,COc1ccc(CN(C)CC(=O)c2c(N)n(Cc3ccccc3)c(=O)n(C)c2=O)c(OC)c1,1.36
6,Cc1ccc([N+](=O)[O-])cc1NC(=O)c1ccoc1C,-0.36
7,CN1c2ccccc2C(O)=C(C(=O)Nc2ccccc2)S1(=O)=O,-0.291
8,O=C(COc1ccc(Cl)cc1)NCc1nnc(SCC(=O)Nc2ccccc2)o1,-0.219
9,Cc1cc(C)c[n+](CC(=O)c2ccc(-c3ccccc3)cc2)c1,0.0767
10,CS(=O)(=O)N1CCN(c2ccccc2NC(=O)c2ccc(Cl)cc2)CC1,0.216
11,Cc1cc(N(CN2CCCC2=O)C(=O)c2ccc(F)cc2)no1,-0.111
12,CC(=O)NS(=O)(=O)c1ccc(NC(=O)c2cc(-c3cccs3)nc3ccccc23)cc1,0.183
13,Cn1c(=O)c2c(nc(NCc3ccco3)n2CCc2ccccc2)n(C)c1=O,-0.121
14,O=C(O)CSCc1c(F)cccc1Cl,-0.658
15,O=C(COc1cccc2ccccc12)NNC(=O)c1cccs1,0.406
16,COc1ccc(C(=O)NC2CCN(C(=S)Nc3cc(C)ccc3C)CC2)cc1,0.0265
17,CCn1c(SCC(=O)NNC(=O)Cc2ccccc2)nnc1-c1ccccc1,-0.123
18,CCOc1ccc2nc(NC3=NC(c4ccc(OC)cc4)CC(=O)N3)nc(C)c2c1 (stereo unspecified),0.0376
19,CCOC(=O)CSC1=NC(=O)/C(=C/c2ccc(OC)cc2)S1,-0.203
20,Cc1nnc(NC(=O)c2ccc(S(=O)(=O)N3CCCCCC3)cc2)o1,-0.304
21,CC(C)Oc1cccc(C(=O)Nc2ccccc2N2CCOCC2)c1,-0.964
22,CCc1nc2ccccc2n1CC(C)C(=O)O (stereo unspecified),-0.187
23,Cc1c(C#N)c2ccccc2n1CC(=O)NCc1cccnc1,-0.39
24,CCN(CC)C(=S)Nc1ccc([N+](=O)[O-])cc1,0.194

row,SMILES,z-score
1,Nc1ccc2nc(-c3ccc(N)c(Cl)c3)[nH]c2c1,-0.784
2,Cc1nc2nc(Cc3ccccc3)nn2c(C)c1Cl,-0.327
3,C=CCn1c(SCC(N)=O)nnc1-c1cc2c(s1)CCC(CC)C2 (stereo unspecified),-0.502
4,O=C(CSc1nnc(-c2ccncc2)n1Cc1ccccc1)NC1CCCc2ccccc21 (stereo unspecified),-0.296
5,COC(=O)Cn1c(=NC(=O)c2ccc(Cl)s2)sc2cc(F)ccc21,0.00472
6,O=C(CSc1nnc(-c2cccs2)n1-c1ccccc1)N1CCCC1,0.344
7,Cc1ccc(C(=O)C2C(=O)c3ccccc3C2=O)cc1,-0.39
8,CN(Cc1ccccc1)c1ncnc2ccc(Br)cc12,-0.191
9,CCn1c(CSc2nc3ccccc3[nH]2)n[nH]c1=S,-0.483
10,CCCOc1ccc(C2C(C(=O)c3ccc(C)o3)=C(O)C(=O)N2Cc2cccnc2)cc1 (stereo unspecified),-0.361
11,CN1CCN(CCNC(=O)c2cc3c(=O)n(C)c4ccccc4c3n2C)CC1,0.327
12,Cc1nn(Cc2ccc(F)cc2)c(C)c1NC(=O)c1noc2c1CCc1ccccc1-2,1.11
13,O=C(CC1(O)C(=O)Nc2ccccc21)c1ccccc1O (stereo unspecified),0.356
14,COc1ccc(C(=O)c2oc3ccc(Br)cc3c2NC(C)=O)cc1,0.111
15,CCC(Sc1nc2ccsc2c(=O)n1-c1ccc(Cl)c(C)c1)C(=O)NCc1ccco1 (stereo unspecified),-0.35
16,CCOc1cc(N2CCOCC2)c(OCC)cc1NC(=O)COc1ncnc2ccccc12,-0.374
17,O=C(NCCc1c[nH]c2ccccc12)/C(=C\c1ccco1)NC(=O)c1ccco1,-0.11
18,COc1ccc(NC(=O)C2CCC(N3C(=O)C4C5C=CC(C5)C4C3=O)CC2)cc1 (stereo unspecified),0.0102
19,CCC(Sc1nc(C)cc(C)n1)C(=O)Nc1ccc(Cl)cn1 (stereo unspecified),-1.23
20,CCN(CC)C(=O)c1ccc2c3c(cccc13)C(=O)N(CCc1ccc(OC)c(OC)c1)C2=O,-0.143
21,COc1ccc(OC(=O)c2cccc(S(=O)(=O)N3CCCC3)c2)cc1,-0.172
22,Cc1ccc(C)c(S(=O)(=O)N/N=C/c2ccc(C(=O)O)cc2)c1,-0.168
23,CCN(CC)C(=O)CSc1nc2c(sc(=S)n2Cc2ccco2)c(=O)n1-c1ccccc1,-0.527
24,CCOC(=O)c1oc2ccc(OC)cc2c1NC(=O)CN1CCN(C)CC1,0.148

row,SMILES,z-score
1,COc1ccccc1OCCOCCOc1c(C)cc(C)cc1Br,0.255
2,O=C(CS(=O)c1cccc(C(F)(F)F)c1)Nc1ccccc1Cl (stereo unspecified),0.0123
3,O=c1c2c(nc3n1CCCCC3)-c1ccccc1CC21CCCC1,-0.184
4,COc1ccc(-c2nnc(SCC(=O)N3CCOCC3)o2)cc1,-0.0577
5,CCOC(=O)N1CCN(C(=O)c2ccc(NC(=O)c3ccc(C)cc3)cc2)CC1,-2.07
6,COC(=O)CSc1cnc2ccccc2n1,0.141
7,O=C(NCc1cccnc1)C1c2ccccc2C(=O)N1C1CCCCCCC1 (stereo unspecified),-0.357
8,Cc1oc(C(C)(C)C)cc1C(=O)Nc1cccc(/C=C/C(=O)O)c1,-0.189
9,COc1cc(C2Nc3cc(Cl)c(S(N)(=O)=O)cc3S(=O)(=O)N2)ccc1OCc1ccccc1 (stereo unspecified),-0.444
10,COc1ccccc1-c1nnc(NC(=O)c2cccc(N3C(=O)CCC3=O)c2)o1,-0.631
11,COc1ccccc1NC(=O)c1cc(Cl)ccc1NC(=O)c1ccco1,0.52
12,CC(=O)NC(C)c1ccc(Cl)c(Cl)c1 (stereo unspecified),-0.488
13,COc1ccc(C(=O)Nn2c(SCC(=O)NCc3ccccc3)nc3ccccc3c2=O)cc1,0.0525
14,O=C(/C(=N\Nc1ccccc1)Sc1nnnn1-c1ccccc1)c1ccccc1,1.31
15,COc1cc(NC(=O)Cc2ccccc2OC)cc(OC)c1,-0.103
16,Cc1ccc(NC(=O)CN(C)C(=O)CCC(=O)c2cccs2)cc1,-0.496
17,COc1ccc(NC(=O)N2CCC(O)(c3cccnc3)CC2)c(OC)c1,0.26
18,Nc1ccc2c(c1)N1CCN=C1S2,-0.306
19,Cc1ccnc(N2CCC(C(=O)NNC(=O)c3ccccc3)CC2)n1,-0.22
20,CCS(=O)(=O)c1ccc(-c2csc(-c3ccccc3Cl)n2)c(Cl)c1Cl,0.0426
21,C=CCNc1nc(C)c(C(C)=O)cc1C#N,0.251
22,CSc1cnc2c(=O)n(C)c(=O)[nH]c2n1,1.28
23,Cc1nnc(SCC(=O)N2CCCCC2)n1CC1CCCO1 (stereo unspecified),-0.112
